From the GPR68 mutational scans of Howard et al. (2025)

B1: GPR68, Q15743 (parent)
chain: MGNITADNSSMSCTIDHTIHQTLAPVVYVTVLVVGFPANCLSLYFGYLQIKARNELGVYLCNLTVADLFYICSLPFWLQYVLQHDNWSHGDLSCQVCGILLYENIYISVGFLCCISVDRYLAVAHPFRFHQFRTLKAAVGVSVVIWAKELLTSIYFLMHEEVIEDENQHRVCFEHYPIQAWQRAINYYRFLVGFLFPICLLLASYQGILRAVRRSHGTQKSRKDQIQRLVLSTVVIFLACFLPYHVLLLVRSVWEASCDFAKGVFNAYHFSLLLTSFNCVADPVLYCFVSETTHRDLARLRGACLAFLTCSRTGRAREAYPLGAPEASGKSGAQGEEPELLTKLHPAFQTPNSPGSGGFPTGRLA

Tests used:
[1] = variants of: B1; experiment: cAMP reporter score (Enrich2 score, wild type = 0); higher = more signal; HEK293T, FACS bins
[2] = variants of: B1; experiment: surface expression score (Enrich2 score, wild type = 0); higher = more signal; HEK293T, FACS bins

Variant | cAMP reporter score ([1]; pH 5.5) | cAMP reporter score ([1]; pH 6, modulator: ogerin) | cAMP reporter score ([1]; pH 6.5, modulator: ogerin) | surface expression score [2] | cAMP reporter score ([1]; pH 6)
C40G | -0.709 | -0.962 | -1.34 | -0.291 | 
C40H | -1.87 | -0.91 | -0.988 | -0.974 | -0.768
C40I | 0.866 | 1.13 | 1.34 | 1.52 | 0.888
C40K | -1.54 |  | -0.878 | -2.59 | -1.66
C40L | 2.32 | 3.06 | 3.76 | 4.05 | 3.06
C40M | 0.834 | 0.795 | 0.584 | 1.44 | 1.45
C40N | -0.427 | -0.669 | -3.03 |  | 
C40P | -0.887 | -0.759 | -0.757 | -2.91 | -1.61
C40Q | -1.17 | -1.51 | -1.24 | -2.41 | -1.27
C40S | -1.22 | -1.31 |  |  | -0.81
C40T | -0.522 | -1.85 | -1.07 | -2.04 | 
C40V | 1.01 | 0.882 | 0.121 | 1.39 | 0.17
C40W | -1.56 | -1.29 | -0.311 | -1.74 | -0.906
C40Y | -1.21 | -1.5 | -0.893 | -2.27 | -0.378
C40_L41insGS | -1.93 |  | -0.868 | -3.34 | -1.51
C40_L41insGSG | -1.01 | -1.59 | -1.4 | -2.46 | -1.51
L41A | 0.731 | 0.056 | -0.408 |  | 0.527
L41C | -1.05 | -0.888 | -0.457 | -1.38 | -0.714
L41D | -0.43 | -0.696 | -0.19 |  | -1.11
L41E | -1.57 | -1.89 | -1.48 | -3.06 | -0.18
L41F | 0.045 | 0.236 | -0.431 | -0.334 | 

Variant | cAMP reporter score ([1]; pH 5.5) | cAMP reporter score ([1]; pH 6, modulator: ogerin) | cAMP reporter score ([1]; pH 6.5, modulator: ogerin) | surface expression score [2] | cAMP reporter score ([1]; pH 6)
L41G | -0.931 |  | -0.588 | -1.89 | -0.345
L41I | 0.332 | 0.196 | -0.788 | 0.195 | 0.113
L41K | -1.51 |  | -0.589 | -1.66 | -1.37
L41M | -0.45 | -0.513 | -0.517 | -1.16 | -0.628
L41N | -1.5 | -1.86 | -1.03 | -2.39 | -1.63
L41P | -0.225 | 0 | -0.057 | -2.41 | 0.525
L41Q | -1.51 | -2.27 | -1.68 | -1.98 | -1.88
L41R | -1.48 | -1.71 | -0.73 | -1.88 | -1.23
L41S | -1.29 | -1.73 | -0.949 | -2.82 | -0.921
L41T | -1.26 | -1.22 | -1.46 | -2.25 | -0.881
L41V | -0.71 | -0.474 | -0.789 | -0.613 | -0.232
L41W | -1.66 | -0.571 | -1.1 | -0.674 | -0.209
L41Y | -0.673 | -0.295 | -0.783 | -1.32 | -0.338
L41_S42del | -2.21 | -1.51 | -1.07 | -1.4 | -0.39
L41del | -1.65 | -1.2 | -0.69 | -2.29 | -0.953
S42A | 1.11 | 1.27 | 2.34 | 1.89 | 1.89
S42C | 0.236 | -0.037 | -0.344 | 1.7 | -0.941
S42E | -0.651 | -0.667 | -0.44 | -0.934 | -0.139
S42F | 0.616 | 0.823 | 0.276 | 0.243 | 0.231
S42G | -0.443 | -0.919 | -0.907 | 2.65 | -0.094
S42H | -0.822 | -0.837 | -1.03 | -1.87 | -1.3

Variant | cAMP reporter score ([1]; pH 5.5) | cAMP reporter score ([1]; pH 6, modulator: ogerin) | cAMP reporter score ([1]; pH 6.5, modulator: ogerin) | surface expression score [2] | cAMP reporter score ([1]; pH 6)
S42I | -1.1 | -0.887 | -0.812 | -0.297 | -0.225
S42K | -1.37 | -1.42 | -0.871 | -2.11 | -0.57
S42L | 0.317 |  | -0.087 | 1.18 | -0.104
S42M | -0.135 | -0.019 | 0.256 | -0.099 | 1.14
S42N | -0.171 | -0.096 | -0.849 | -0.699 | -0.867
S42P | -0.849 | -0.843 | 0.007 | -2.46 | -0.596
S42Q | -0.449 | -0.692 |  | -0.391 | -0.59
S42R | -1 | -1.42 | -1.31 | -1.34 | -0.389
S42T | 0.838 | 1.07 | 0.704 | 0.598 | 0.817
S42V | 0.78 | 0.453 | 0.157 | 2.37 | 0.008
S42W | 0.475 | -0.729 | -0.77 | -2.53 | -0.316
S42Y | -2.08 |  | -1.01 | -2.94 | -2.16
S42_Y44del | -1.39 | -1.77 | -1.48 | -2.63 | -1.33
S42del | -1.31 | -0.575 | -1.29 | -2.19 | -0.541
L43_Y44del | -2.05 |  | -1.32 | -2.12 | 
L43_Y44insGS | -0.378 | -0.304 | -0.207 | -2.67 | -0.521
Y44_F45insGS | -1.6 | -2.54 | -1.05 | -2.27 | -1.43
Y44_F45insGSG | -1.51 | -1.45 | -1.31 | -2.8 | -1.02
Y44_G46del | -1.35 | -1.22 | -1.39 | -2.46 | -0.828
F45_G46del | -1.04 | -1.08 | -1.05 | -2.04 | -0.689
F45_G46insGSG | -1.31 | -1.68 | -0.889 | -2.02 | -1.29

The least precise scores are not listed. The source holds two more conditions with little spread; they are left out. Names with del lack the residues named; names with ins carry added residues between the positions named. For part of these data: How much ogerin was present is not stated here.
